This assay relates to OVCAR8. Put plainly: cell count relative to DMSO vehicle (fold change); OVCAR8 is a high-grade serous ovarian cancer line and CX-5461 an RNA polymerase I inhibitor; higher = more surviving senescent cells (less killing). The settings on record: senescence inducer: CX-5461 3 µM 48 h, then 6 d recovery (CX senescent), exposure time 24 h.

Structures are written as SMILES. Counter-ions that a name gives are not always drawn. ± gives the standard deviation of the averaged measurements. Some of the results follow.

Turning to `O=c1[nH]c(=O)n([C@H]2C[C@H](O)[C@@H](CO)O2)cc1C(F)(F)F`, the cell count runs as follows: (compound dose 1 µM) 1.01 ± 0.15; (compound dose 5 µM) 0.947 ± 0.25.
Regarding `COC(=O)c1ccc(O)c(O)c1` [Methyl 3,4-dihydroxybenzoate], the cell count is 1.18 ± 0.22 (compound dose 1 µM) and 1.21 ± 0.23 (compound dose 5 µM).
The like results for `COc1ccc2c3c1O[C@H]1C[C@@H](O)C=C[C@@]31CCN(C)C2` [Galanthamine] were, in that order, 1.02 ± 0.21 and 1.04 ± 0.053.
For the compound `O=C(NNc1ccccc1)c1ccncc1` [PluriSIn 1], the cell count came to 1.16 ± 0.15 (compound dose 1 µM) and 0.993 ± 0.12 (compound dose 5 µM).
For `COc1cc(OC)cc(N2CCN(C(=O)Nc3nc4cc(F)ccc4nc3OC)CC2)c1` [Supinoxin], the cell count is, setting by setting: (compound dose 1 µM) 1.15 ± 0.083; (compound dose 5 µM) 1.201 ± 0.0085.
For `COc1cc2c(cc1OC)[C@@H]1C(=O)c3ccc4c(c3O[C@@H]1CO2)C=CC(C)(C)O4` [Deguelin], the cell count is, setting by setting: (compound dose 1 µM) 1.14 ± 0.17; (compound dose 5 µM) 1.1 ± 0.25.
In the case of `C=C1CCC[C@]2(C)C[C@@H]3OC(=O)C(C)=C3C[C@@H]12` [Atractylenolide II], the cell count (compound dose 1 µM) turned out to be 1.02 ± 0.11 and the cell count (compound dose 5 µM) was 0.988 ± 0.14.
The like results for `C=C(C)[C@@H]1CC[C@]2(C)CC[C@]3(C)[C@H](CC[C@@H]4[C@@]5(C)CC[C@H](O)C(C)(C)[C@@H]5CC[C@]43C)[C@@H]12` were, in that order, 1.05 ± 0.21 and 1.13 ± 0.17.
`Oc1cc(O)cc(/C=C/c2ccc(O)c(O)c2)c1` [Piceatannol] gave a cell count (compound dose 1 µM) of 1.21 ± 0.1 and a cell count (compound dose 5 µM) of 1.31 ± 0.18.
Regarding `CCN1CCN(c2ccc(Nc3cc(N(C)C(=O)Nc4c(Cl)c(OC)cc(OC)c4Cl)ncn3)cc2)CC1` [Infigratinib], the cell count by setting is: (compound dose 1 µM) 1.19 ± 0.25; (compound dose 5 µM) 1.17 ± 0.25.
The corresponding values for `CC[C@@]1(O)C(=O)OCc2c1cc1n(c2=O)Cc2cc3c(CN(C)C)c(O)ccc3nc2-1` [Topotecan (Hydrochloride)] are 0.807 ± 0.025 and 1.02 ± 0.057.
Compound `O=c1[nH]c(=S)[nH]c2nc(-c3ccccc3)c(-c3ccccc3)nc12` [SCR7 pyrazine] showed a cell count (compound dose 1 µM) of 0.987 ± 0.15 and a cell count (compound dose 5 µM) of 0.978 ± 0.14.
Take `COc1cc2ncnc(Nc3ccc(O)c(Br)c3)c2cc1OC`: the cell count came out at 1.11 ± 0.069 (compound dose 1 µM) and 1.07 ± 0.091 (compound dose 5 µM).
The like results for `C[C@@H]1O[C@@H](O[C@H]2C(=O)c3c(O)cc(O)cc3O[C@@H]2c2ccc(O)c(O)c2)[C@H](O)[C@H](O)[C@H]1O` [Astilbin] were, in that order, 1.06 ± 0.18 and 1.07 ± 0.098.
As for `CC[C@H](C)C(=O)O[C@H]1C[C@H](O)C=C2C=C[C@H](C)[C@H](CC[C@@H](O)C[C@@H](O)CC(=O)O)[C@H]21` [Pravastatin (sodium)], the cell count is, setting by setting: (compound dose 1 µM) 1.1 ± 0.17; (compound dose 5 µM) 1.18 ± 0.27.
As to `Cc1cc([N+](=O)[O-])c(NS(=O)(=O)c2cccc(C(=O)O)c2)cc1-c1cccnc1` [Alofanib], the cell count by setting is: (compound dose 1 µM) 1.05 ± 0.093; (compound dose 5 µM) 1.02 ± 0.044.
As to `O=S1(=O)CCN(CN2CCS(=O)(=O)NC2)CN1` [Taurolidine], the cell count came out at 1.16 ± 0.12 (compound dose 1 µM) and 1.1 ± 0.05 (compound dose 5 µM).
For `Cc1nc(C)c(C)nc1C` [Tetramethylpyrazine], the cell count is 1.03 ± 0.07 (compound dose 1 µM) and 1.15 ± 0.16 (compound dose 5 µM).
`Cc1ccc(S(=O)(=O)/C=C/C#N)cc1`: the cell count runs as follows: (compound dose 1 µM) 1.08 ± 0.14; (compound dose 5 µM) 0.389 ± 0.41.
Consider `Nc1ccccc1NC(=O)c1ccc(CNc2nccc(-c3cccnc3)n2)cc1` [Mocetinostat (MGCD0103)], for which the cell count was 1.16 ± 0.039 (compound dose 1 µM) and 1.232 ± 0.0085 (compound dose 5 µM).
The corresponding values for `O=C1C(O)=C(O)C(=O)C(O)=C1O` are 1.1 ± 0.15 and 1.12 ± 0.058.
For `Cc1ccc(C(=O)N(CCCN)[C@@H](c2nc3cc(Cl)ccc3c(=O)n2Cc2ccccc2)C(C)C)cc1` [Ispinesib], the cell count came to 1.1 ± 0.011 (compound dose 1 µM) and 1.07 ± 0.14 (compound dose 5 µM).
`C[C@@H]1O[C@@H](O[C@H]2[C@H](O[C@H]3CC[C@@]4(C)[C@@H](CC[C@]5(C)[C@@H]4CC=C4[C@@H]6CC(C)(C)CC[C@]6(C(=O)O)CC[C@]45C)[C@]3(C)CO)OC[C@H](O[C@@H]3O[C@H](CO)[C@@H](O)[C@H](O)[C@H]3O)[C@@H]2O)[C@H](O)[C@H](O)[C@H]1O` [Pulsatilla saponin D] registered a cell count (compound dose 1 µM) of 1.09 ± 0.089 and a cell count (compound dose 5 µM) of 0.004.
Regarding `CC(C)c1cnn2c(NCc3ccccc3)cc(NC[C@H]3CCNC[C@@H]3O)nc12` [Samuraciclib (hydrochloride)], the cell count by setting is: (compound dose 1 µM) 0.95 ± 0.011; (compound dose 5 µM) 1.13 ± 0.12.
As to `C=C1CCC[C@]2(C)C[C@]3(O)OC(=O)C(C)=C3C[C@@H]12` [Atractylenolide III], the cell count runs as follows: (compound dose 1 µM) 1.06 ± 0.22; (compound dose 5 µM) 0.933 ± 0.18.
For `O=c1c(O[C@@H]2O[C@@H](CO)[C@H](O)[C@H]2O)c(-c2ccc(O)c(O)c2)oc2cc(O)cc(O)c12` [Avicularin], the cell count reads like this: (compound dose 1 µM) 1.23 ± 0.29; (compound dose 5 µM) 1.13 ± 0.36.
In the case of `COc1cc2ncnc(Nc3ccc(F)c(Cl)c3)c2cc1NC(=O)/C=C/CN1CCCCC1`, the cell count was determined as 0.964 ± 0.088 (compound dose 1 µM) and 0.834 ± 0.018 (compound dose 5 µM).
Take `CC(=O)Oc1cc(C)c(OC(C)=O)c2ccccc12` [Vitamin K4]: the cell count is, setting by setting: (compound dose 1 µM) 1.11 ± 0.26; (compound dose 5 µM) 1.1 ± 0.28.
For `COCCCOc1ccnc(C[S+]([O-])c2nc3ccccc3[nH]2)c1C` (stereo unspecified) [Rabeprazole (sodium)], the cell count was 1.126 ± 0.0028 (compound dose 1 µM) and 1.08 ± 0.14 (compound dose 5 µM).
The like results for `CC(C)=CCC/C(C)=C\CO` [Nerol] were, in that order, 0.61 ± 0.024 and 0.492 ± 0.052.
`COc1nc(C)cnc1NS(=O)(=O)c1cccnc1-c1ccc(-c2nnco2)cc1` [Zibotentan]: the cell count is, setting by setting: (compound dose 1 µM) 1.05 ± 0.23; (compound dose 5 µM) 1.03 ± 0.05.
As to `O=C(NCc1ccc2c(c1)OCO2)c1c(Cl)cccc1Cl`, the cell count stood at 1.13 ± 0.17 (compound dose 1 µM) and 1.13 ± 0.18 (compound dose 5 µM).
In turn, `Nc1ccccc1NC(=O)CCCCCCC(=O)Nc1ccccc1` registered a cell count (compound dose 1 µM) of 1.24 ± 0.19 and a cell count (compound dose 5 µM) of 1.24 ± 0.23.
`NC(=O)Nc1sc(-c2ccc(F)cc2)cc1C(N)=O` showed a cell count (compound dose 1 µM) of 1.181 ± 0.0057 and a cell count (compound dose 5 µM) of 1.08 ± 0.019.
Take `COC(=O)CCCCC(=O)NCCN1C(=O)c2cccc3c(Sc4ccc(Br)cc4)ccc(c23)C1=O`: the cell count by setting is: (compound dose 1 µM) 1.01 ± 0.17; (compound dose 5 µM) 1.01 ± 0.097.
With `COc1cc2c(cc1OC)-c1c(C)c3ccc(OC)c(OC)c3c[n+]1CC2` [Dehydrocorydaline], the cell count runs as follows: (compound dose 1 µM) 1.2 ± 0.15; (compound dose 5 µM) 1.16 ± 0.22.
The like results for `Cc1nn(C)c(COc2ccc(N3CCN(S(=O)(=O)N(C)C)CC3)cc2)c1-c1cccc2c(CCCOc3cccc4ccccc34)c(C(=O)O)n(CCN3CCOCC3)c12` were, in that order, 1.16 ± 0.21 and 1.21 ± 0.35.
The like results for `C[C@@H]1O[C@@H](OC[C@H]2O[C@@H](Oc3c(-c4ccc(O)c(O)c4)oc4cc(O)cc(O)c4c3=O)[C@H](O)[C@@H](O)[C@@H]2O)[C@H](O)[C@H](O)[C@H]1O` [Rutin] were, in that order, 1.06 ± 0.1 and 1.2 ± 0.24.

The values above are taken from the supplement of paper PMC12462457.
